Test results from PubChem BioAssay AID651820 (National Center for Advancing Translational Sciences (NCATS), 2012).
Screen size: about 340,000 compounds; about 12,000 (3.5%) were called active. The shares of active, inactive and inconclusive entries below differ from those in the screen. The call rests on the fitted dose curve; in most records, active means well fitted inhibition curve with a large enough effect; inconclusive means small, poorly fitted or top-dose-only effect, or another doubt; inactive means no such curve, though single readings can be large or run the other way. No potency is given beside an inconclusive call; the fits are too rough.

Experiment: qHTS Assay for Inhibitors of Hepatitis C Virus (HCV)
Conditions: Huh7.5.1 HCVcc-Cre (HCVcc is cell-culture hepatitis C virus) infection, luciferase reporter, 44 h; activity change, negative = inhibition: at 41.8 µM (top of the series)
Summary of the method: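 Cells (1,000/well) were plated 4 h before compound, then infected with HCVcc-Cre virus (~0.5 moi). After 44 h further culture, infection was read as luciferase luminescence following a 15 min substrate incubation at room temperature.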
On the % scale 0 is the no-effect control and ±100 the full control effect; potency means the concentration at half of the fitted maximal effect; tags describe the fitted curve by direction and shape.

SMILES | Potency | activity change, negative = inhibition
COc1ccc(CC(=O)NCC(=O)N/N=C/c2cc(Br)ccc2OC)cc1 | inconclusive [inhibitor, partial curve] | –
CCOC(=O)C1CCCN(Cc2nc(N)nc(Nc3ccc(Cl)cc3)n2)C1 (stereo not given) | inconclusive [inhibitor, partial curve] | –
COc1ccccc1-c1nc(SCC(=O)Nc2cc(C)on2)c2c(=O)n(C)c(=O)n(C)c2n1 | inconclusive [inhibitor, single point] | –
C/C=C/c1ccc(OCC(=O)NNC(=O)CN(C)S(=O)(=O)c2ccc(C)cc2)c(OC)c1 | inconclusive [inhibitor, single point] | –
CC(C)Nc1ncnc2c1cnn2-c1ccc(Cl)cc1 | inconclusive [inhibitor, single point] | –
COc1cc(NC(=O)c2ccc(-c3cccc(F)c3)o2)ccc1NC(=O)c1ccccc1Cl | active: 7.08 µM | –
CC(=O)Nc1ccc(N(C(=O)Cc2cccs2)C(C(=O)NC2CCCC2)c2ccncc2)cc1 (stereo not given) | – | inactive: 2.68%
NCCNc1ccc([N+](=O)[O-])c(NC2CC2)c1 | inconclusive [inhibitor, partial curve] | –
CCCCn1c(=N)n(CC(O)COc2ccc(C)cc2)c2ccccc21 (stereo not given) | active: 11.2 µM | –
O=C(N/N=C/c1ccc(O)c(O)c1)N/N=C/c1ccc(O)c(O)c1 | – | inactive: 14.9%
Nc1nnc(CC(=O)N/N=C/c2ccc(-c3ccccc3)o2)s1 | – | inactive: -1.68%
Cc1ccc2cc(CCNC(=O)c3ccc(S(=O)(=O)N4CCCCC4)cc3)c(=O)[nH]c2c1 | inconclusive [inhibitor, single point] | –
CCOC(=O)c1[nH]c(C)c(CN(Cc2ccco2)C(=O)C(F)(F)F)c1C | inconclusive [inhibitor, single point] | –
C/C(CCc1ccccc1)=N\NC(=O)CCc1ccccc1 | – | inactive: 11.2%
O=C(NC1CCSc2ccccc21)c1cccc(Cl)c1 (stereo not given) | – | inactive: -13.5%
CC(C)Oc1ccc(C(=O)OCC(=O)c2ccc[nH]2)cc1 | – | inactive: 7.14%
CN(CC(=O)Nc1ccc(Cl)c(C(F)(F)F)c1)C(=O)Cc1ccsc1 | inconclusive [inhibitor, single point] | –
C=CCC[C@H](Cc1ccc(F)cc1)C(=O)OC[C@@H](NC(=O)[C@@H](CC=C)CC(=O)N[C@@H](CO)Cc1ccccc1)C(C)(C)C | active: 22.4 µM | –
CCN(CC)S(=O)(=O)c1ccc(C(=O)NCCSc2c[nH]c3ccccc23)cc1 | inconclusive [inhibitor, single point] | –
Cc1ccc(C(=O)OCC(=O)Nc2sccc2C(N)=O)cc1NC(=O)c1ccco1 | inconclusive [inhibitor, partial curve] | –
CCCc1ccc(-c2cc(C(=O)NC3=NCCS3)c3ccccc3n2)cc1 | inconclusive [inhibitor, single point] | –
Cc1ccc(CSc2nnc(-c3ccccn3)n2C)cc1 | – | inactive: 9.47%
Cn1c(=O)c2c(nc(CN3CCN(Cc4ccccc4)CC3)n2Cc2ccccc2)n(C)c1=O | – | inactive: 10.6%

SMILES | Potency | activity change, negative = inhibition
CCN(CC)S(=O)(=O)c1ccc2oc(SCc3ccc(F)cc3)nc2c1 | inconclusive [inhibitor, partial curve] | –
COc1ccc(NC(=O)C(=O)NCC(c2ccco2)N2CCc3ccccc3C2)cc1OC (stereo not given) | inconclusive [inhibitor, full curve] | –
CCCCC(=O)NC(c1ccc(C(C)C)cc1)c1ccc2cccnc2c1O (stereo not given) | active: 2.82 µM | –
CCNC(=S)N1CCN(c2nc(CC)nc3sc4c(c23)CCCC4)CC1 | inconclusive [inhibitor, full curve] | –
Cc1ccc(S(=O)(=O)Nc2ccccc2N2CCCCC2)cc1 | inconclusive [inhibitor, single point] | –
O=C(CCl)NCCN1C(=O)S/C(=C\c2cccnc2)C1=O | – | inactive: -14.3%
CC(OC(=O)c1cccc(-n2cnnn2)c1)C(=O)Nc1ccc(F)cc1Cl (stereo not given) | inconclusive [inhibitor, single point] | –
COC(=O)c1cnc(SCc2ccc(Cl)cc2)n1C | – | inactive: -7.4%
O=C(Nc1ccc(S(=O)(=O)Nc2ncccn2)cc1)c1ccc(Cl)c([N+](=O)[O-])c1 | – | inactive: 25.4%
CCSC1=N/C(=C/c2ccsc2)C(=O)N1c1ccccc1 | inconclusive [inhibitor, partial curve] | –
COc1ccnc2c1c(=O)n(Cc1ccc(Cl)cc1)c(=O)n2C | inconclusive [inhibitor, partial curve] | –
CCC(Sc1nc2n[nH]c(C)c2c(=N)n1-c1cccc(Cl)c1C)C(=O)N(CC)CC (stereo not given) | inconclusive [inhibitor, single point] | –
O=C(/C=C/c1ccc(F)cc1)Nc1cccc(S(=O)(=O)N2CCOCC2)c1 | active: 10 µM | –
COc1ccccc1[C@H]1C(c2ccc(F)cc2)=NN(c2ccccc2)[C@@H]1CO | inconclusive [inhibitor, partial curve, poor fit] | –
Cc1ccc(-n2nc3cc(C)c(NC(=S)NC(=O)/C=C/c4ccco4)cc3n2)cc1 | inconclusive [inhibitor, single point] | –
Cc1ccc(NC(=O)COc2ccc(-n3ccnc3)cc2)cc1Cl | inconclusive [inhibitor, partial curve] | –
COC(=O)c1nn(-c2ccccc2)c(Sc2ccc(C)cc2)c1/C=N/O | inconclusive [inhibitor, single point] | –
CCOC(=O)C/C(N)=N/NC(=O)c1ccc(Cl)cc1Cl | – | inactive: 4.78%
CC(C)c1ccc(OCC(=O)NCc2ccccc2)cc1 | – | inactive: 21.8%
COC(=O)C(C)Sc1nc2c([nH]c3ccccc32)c(=O)n1C (stereo not given) | inconclusive [inhibitor, partial curve] | –
Cc1nn(C(C)C(=O)Nc2sc3c(c2C#N)CCCC3)c(C)c1[N+](=O)[O-] (stereo not given) | inconclusive [inhibitor, single point] | –
Cc1cccc(NC(=O)C(=O)NCC2CCCN2S(=O)(=O)c2ccccc2)c1 (stereo not given) | inconclusive [inhibitor, single point] | –
